According to the supplement of paper PMC3334620:
Over roughly 33,000 sequences, “E-score (-0.5 to 0.5)” has its median near -0.013; the highest 2% begin near 0.3. This is one part of the list.

target: T1, Msn1 (UniProt P22148); assay: PBM E-score (8-mer binding enrichment) (E-score (-0.5 to 0.5)); higher = stronger / more preferred TF binding; most listed sequences are background and not binding sites; conditions: protein concentration: 200 nM; construct: GST-full length
T1 sequence: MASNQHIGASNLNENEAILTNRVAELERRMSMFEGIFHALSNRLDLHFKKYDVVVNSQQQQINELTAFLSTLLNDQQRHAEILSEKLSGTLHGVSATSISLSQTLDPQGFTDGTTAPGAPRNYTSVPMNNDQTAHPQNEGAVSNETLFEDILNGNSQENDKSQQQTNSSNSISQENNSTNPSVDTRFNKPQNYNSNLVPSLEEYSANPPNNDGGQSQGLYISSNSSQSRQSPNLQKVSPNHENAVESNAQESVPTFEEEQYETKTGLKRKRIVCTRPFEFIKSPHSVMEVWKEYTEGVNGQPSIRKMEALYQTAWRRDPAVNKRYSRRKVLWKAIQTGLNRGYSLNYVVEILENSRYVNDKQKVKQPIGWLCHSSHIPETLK
Procedure: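 Universal 'all 10-mer' protein binding microarrays (Agilent AMADID 015681) probed with GST-tagged S. cerevisiae TFs (full-length or DBD) made by in vitro transcription/translation (PURExpress), about 100-200 nM. Bound TF was detected with fluorescent anti-GST. Each ungapped 8-mer (which stands for itself and its reverse complement) is scored by the PBM enrichment score (E-score), a modified Wilcoxon-Mann-Whitney statistic from -0.5 to +0.5, computed with the Universal PBM Analysis Suite. Scale: above 0.35 generally sequence-specific binding.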

Row | Sequence | PBM E-score
1 | GAACACGC | -0.0425
2 | GTCCTAGA | 0.342
3 | AAACCATG | 0.0343
4 | TGACGTCA | 0.278
5 | ACCTTTCA | -0.0241
6 | ACGCGGCG | 0.0154
7 | GACGATCC | -0.107
8 | CTATGGGA | -0.156
9 | AAGTGCCC | -0.173
10 | ACATACGC | 0.149
11 | ATGATACA | 0.13
12 | AAATACTT | 0.116
13 | GGCGTAAC | -0.299
14 | AACCCGCT | -0.0999
15 | ACTGAATA | 0.00919
16 | CGAGGTAA | 0.0444
17 | TCCGGCAA | 0.128
18 | CTTAGGTA | 0.0762
19 | AGAGACCA | -0.256
20 | AACGACTA | 0.0622
21 | TAACTAGA | 0.113
22 | AATAATGG | -0.0233
23 | CAATCACG | 0.0396
24 | TGTAAGAA | 0.0929
25 | ATAAACAG | -0.0233

Row | Sequence | PBM E-score
26 | CGGTTATC | 0.0117
27 | GGTAGATA | 0.00672
28 | GCTACAGC | -0.194
29 | ACTGCCGA | 0.0458
30 | CACACAAC | -0.0106
31 | AAACAGTT | 0.104
32 | GATTGGCC | -0.138
33 | GCCCCCCA | -0.401
34 | ATGCTGCA | -0.161
35 | ACTTTTCT | 0.131
36 | AAGACTCA | -0.112
37 | AGTTGCAA | 0.122
38 | ACGCACTC | -0.0737
39 | AGTAGCAT | -0.157
40 | AAACTTGA | -0.0134
41 | ACCGGCGT | 0.0322
42 | ATGAATGC | -0.0205
43 | TCGCTACA | -0.254
44 | CTCATAAC | -0.131
45 | ATGACAAT | 0.365
46 | GAATGCTC | -0.075
47 | CGCCTCTC | -0.345
48 | CAGGCTGA | -0.204
49 | CCACCAAC | -0.0306
50 | TAAAGACA | 0.356

Row | Sequence | PBM E-score
51 | ATCACAGG | -0.137
52 | ACATGAAC | 0.173
53 | TGCTCCAA | 0.0599
54 | ACGAGCTG | 0.0278
55 | CCATAGGC | -0.0414
56 | CAAGCGCA | 0.185
57 | CTTCTGAC | -0.103
58 | ATACGTAG | -0.0938
59 | GTTCTGCA | -0.00536
60 | GAGCATAA | 0.00338
61 | AAATTTAA | 0.238
62 | AATTTCTG | 0.164
63 | ACTCAGCC | -0.215
64 | CCGTGCTA | -0.28
65 | TCTCGTAA | 0.0717
66 | GTATTCAC | 0.218
67 | AAACGTAC | 0.0217
68 | ATGCTACG | 0.13
69 | CCCAGTCG | -0.238
70 | CGAAGACC | -0.0801
71 | CTTTGAGC | -0.112
72 | CTCTTAAG | 0.0891
73 | AGTCGCCA | -0.259
74 | ATCCCCGG | -0.289
75 | CATCGTCG | -0.161

Row | Sequence | PBM E-score
76 | ACTGCACA | -0.0484
77 | ATGCCCAT | -0.138
78 | GGGAAGAA | -0.27
79 | ATAGGTCG | -0.0322
80 | ACACAAGG | 0.0619
81 | ATCCTGCG | -0.0743
82 | CATTATTC | 0.0351
83 | TCCTTCCA | -0.117
84 | CTCACCGC | -0.159
85 | GCACCCGC | -0.163
86 | CGAATCGC | -0.211
87 | AGGGTGAT | -0.1
88 | AGTTAATA | 0.221
89 | AGACAGCT | -0.125
90 | CACGAATG | 0.104
91 | CTTGAGAC | 0.0475
92 | CATGACCG | -0.0675
93 | AGACCTCT | -0.182
94 | ACGCCTTC | -0.0871
95 | ATAGGTAA | -0.0187
96 | CGCAAAAC | 0.0323
97 | ACTGCACT | 0.0708
98 | ATTGCAGG | -0.0367
99 | TTTACAAA | 0.12
100 | ATTGAAAT | 0.126

Row | Sequence | PBM E-score
101 | AGATGGTG | -0.161
102 | TATGTAAA | 0.0978
103 | ATCATCAG | -0.0733
104 | CCGGCGCG | -0.123
105 | CGGTTGGA | -0.111
106 | AACAAGCA | 0.0339
107 | CCGCTTCG | -0.115
108 | AGTATCAA | 0.217
109 | CAACGCGA | 0.154
110 | ACGGACGC | -0.049
111 | GAACGAGA | 0.202
112 | GTTGGCCA | -0.219
113 | ACCGCGCA | -0.0548
114 | CCACTACG | 0.0309
115 | GGTGGGCA | -0.0817
116 | AAACGTCA | -0.057
117 | ATTCGGTC | -0.0603
118 | GAGACAGA | 0.0976
119 | CAGGGAGG | -0.355
120 | CCACGACA | 0.179
121 | CTGTTATC | -0.0672
122 | ACGCTGGA | -0.09
123 | TAGTTGCA | 0.0158
124 | GATATTTA | 0.125
125 | CGTCAACC | -0.192

Row | Sequence | PBM E-score
126 | GCGGGTGA | -0.0547
127 | GTTTTAAA | 0.244
128 | CAGAAGCG | 0.00178
129 | CGTGCGGC | -0.106
130 | ACCGTAGC | -0.243
131 | GTGTCCAA | 0.389
132 | GTAATTAC | 0.133
133 | ACCTCATG | -0.244
134 | GCCGCAGC | -0.256
135 | GGAGAATA | 0.0546
136 | CCTCCACG | -0.13
137 | ATTTGCGA | 0.0711
138 | CGGGTAGA | -0.146
139 | AAGGGGAG | -0.222
140 | CATCACCA | 0.0596
141 | ACCTTTTC | 0.0396
142 | TCTAAAAA | 0.136
143 | CTGCAGTA | -0.128
144 | GTTTGACA | 0.0659
145 | TGAAAGAA | 0.229
146 | CCCGCCGC | -0.159
147 | ACGCACGT | -0.00608
148 | ACGATAGA | -0.084
149 | AGATCCGG | -0.022
150 | CCATGTTC | 0.0339

Row | Sequence | PBM E-score
151 | AAAAGAAT | 0.245
152 | GACGCGAA | 0.0618
153 | CGCGTACC | -0.138
154 | TACGACAA | 0.352
155 | ATCGCGGA | 0.03
156 | GTGCGAAC | -0.203
157 | AGCCTTTA | -0.0302
158 | CTACAGTC | -0.0295
159 | ACCACTCC | -0.0353
160 | AGAAGATG | -0.132
161 | ACAGGTAT | 0.0494
162 | ACATAACG | 0.243
163 | CCCCGTGC | -0.262
164 | CCTTTATA | -0.142
165 | AGAATGTA | 0.167
166 | CCCGAACA | 0.181
167 | GGTTGCAA | -0.0202
168 | AACTGCTT | -0.0806
169 | CGGAAATA | 0.2
170 | ATTGGTTA | 0.00682
171 | AATAGCCC | -0.212
172 | ACGCCGCG | -0.0148
173 | TACGCGGA | -0.106
174 | AAGTACCT | 0.0694
175 | CGAAATTC | -0.0495

Row | Sequence | PBM E-score
176 | ACGATCAC | -0.107
177 | ATGCTGGC | -0.104
178 | CGTCCCGA | 0.0488
179 | CCCTAGAA | -0.0965
180 | CAGAACGG | 0.0739
181 | ACACGTAT | 0.125
182 | AACCACCC | -0.0597
183 | ACTGATCC | -0.00633
184 | GACTATAA | 0.0514
185 | CAATTACG | 0.00041
186 | AATCACAG | 0.00145
187 | CTGAAACC | 0.0588
188 | AAACAAAT | 0.199
189 | GCAAAACC | -0.153
190 | CTACCGAC | 0.00655
191 | AAAACGGT | 0.00929
192 | GCCCAGCC | -0.164
193 | ATTTTGAC | 0.248
194 | GCCTCGAC | -0.148
195 | ACGTAAGG | -0.0593
196 | AGTGGGAG | -0.127
197 | AGTGTCGC | 0.0675
198 | ATAGATAT | 0.0389
199 | ACAACCTG | 0.0989
200 | ATACACCA | 0.0163

Row | Sequence | PBM E-score
201 | AGATCTAG | -0.119
202 | AGCATACT | -0.0227
203 | ATTTGATA | 0.11
204 | CTCGTACC | 0.0312
205 | CCATACTA | 0.138
206 | TCTACGAA | -0.0488
207 | TCTGCAGA | 0.227
208 | GGCACACC | -0.319
209 | CGACTAAG | 0.00905
210 | ATTTTCCC | 0.11
211 | GTATTTAA | 0.0163
212 | CAGGATGC | -0.0359
213 | GAAAAGAA | -0.0386
214 | AAGCATGC | -0.191
215 | AGCTGTGC | -0.137
216 | AGGGCCGA | -0.0423
217 | CGGTAGCA | 0.0348
218 | ACGCGGCA | 0.0334
219 | AAGTAAAT | 0.202
